# Assay results published in publication PMC4336329 (PLoS ONE, 2015).
# Hit rate of the full screen: of about 310,000 compounds, about 2,200 (0.71%) showed an effect of 50% or more. Effects have a minus sign here. The list shows a part of the results.
# Target: human ether-à-go-go-related gene (hERG) potassium channel (human, UniProt Q12809)
# Test: primary screen, population patch clamp on CHO cells stably expressing hERG
# Sequence of human ether-à-go-go-related gene (hERG) potassium channel (Q12809 whole entry, looked up): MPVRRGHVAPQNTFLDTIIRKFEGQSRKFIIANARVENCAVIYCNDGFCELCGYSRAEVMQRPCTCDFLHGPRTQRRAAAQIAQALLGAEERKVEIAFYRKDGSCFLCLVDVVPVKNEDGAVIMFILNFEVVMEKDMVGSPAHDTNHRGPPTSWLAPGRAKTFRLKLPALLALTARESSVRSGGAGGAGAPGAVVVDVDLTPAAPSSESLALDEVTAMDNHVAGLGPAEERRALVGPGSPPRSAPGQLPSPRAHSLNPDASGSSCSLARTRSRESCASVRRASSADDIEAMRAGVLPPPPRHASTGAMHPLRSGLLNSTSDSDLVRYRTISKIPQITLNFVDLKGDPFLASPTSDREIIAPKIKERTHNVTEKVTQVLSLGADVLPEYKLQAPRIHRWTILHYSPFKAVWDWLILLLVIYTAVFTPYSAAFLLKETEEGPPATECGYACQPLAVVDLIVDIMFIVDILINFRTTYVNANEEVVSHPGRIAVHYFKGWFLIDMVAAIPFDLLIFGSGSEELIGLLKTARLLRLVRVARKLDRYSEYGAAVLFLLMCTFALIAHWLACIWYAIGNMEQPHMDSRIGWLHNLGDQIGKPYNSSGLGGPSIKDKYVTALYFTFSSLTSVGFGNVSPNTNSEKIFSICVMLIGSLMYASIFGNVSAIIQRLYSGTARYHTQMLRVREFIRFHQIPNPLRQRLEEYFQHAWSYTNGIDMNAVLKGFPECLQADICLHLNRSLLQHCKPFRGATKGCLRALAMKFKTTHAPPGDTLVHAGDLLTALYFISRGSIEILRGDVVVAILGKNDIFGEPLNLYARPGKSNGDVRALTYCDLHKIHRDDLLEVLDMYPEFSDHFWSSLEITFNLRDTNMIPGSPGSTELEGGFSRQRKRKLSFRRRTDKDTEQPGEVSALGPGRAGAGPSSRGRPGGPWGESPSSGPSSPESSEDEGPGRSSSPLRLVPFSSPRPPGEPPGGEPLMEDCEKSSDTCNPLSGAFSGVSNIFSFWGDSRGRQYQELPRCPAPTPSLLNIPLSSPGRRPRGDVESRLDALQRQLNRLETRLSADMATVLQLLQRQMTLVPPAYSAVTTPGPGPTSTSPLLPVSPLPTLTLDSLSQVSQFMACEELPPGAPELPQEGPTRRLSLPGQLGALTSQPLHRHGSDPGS
row,Structure (SMILES),"hERG current change (%, negative = inhibition) at 1uM"
1,CCOC(=O)c1cc(C(=O)c2cc(F)ccc2O)coc1=N,-2.96%
2,Cc1ccc(NC(=O)CCN2C(=O)C3CCCCC3C2=O)cc1[N+](=O)[O-] (stereo not shown),-5.48%
3,COc1ccc(CCNC(=O)COC(=O)c2ccc(C)s2)cc1,-1.76%
4,Cc1ccc2nc3n(c(=O)c2c1)-c1ccc(Cl)cc1C(=O)NC3Cc1ccccc1 (stereo not shown),14.8%
5,CCC(=O)n1nc(-c2ccco2)nc1SCc1ccccc1,9.98%
6,CCN(CC)S(=O)(=O)c1ccc(N=Nc2c(N)[nH]c(=O)[nH]c2=O)cc1,7.26%
7,O=C(COC(=O)c1cccc(N2C(=O)C3CC=CCC3C2=O)c1)c1ccccc1 (stereo not shown),9.15%
8,COc1ccc(OC)c(CCNC(=O)c2ccc3c(c2)N(Cc2ccccc2)CCS3)c1,16.2%
9,CN1CCN(NC(=O)c2cc(S(=O)(=O)N3CCOCC3)c(Cl)cc2Cl)CC1.Cl,6.65%
10,Cc1ccccc1-c1nnn(CC(=O)N2CCN(C(=O)c3ccco3)CC2)n1,-7.31%
11,CN1CCC(=NOc2ccc([N+](=O)[O-])cc2)CC1,-56%
12,O=C(CCC1CCCC1)c1c(O)c2ccccc2oc1=O,11.5%
13,CSc1nc(=O)n2cccc(C)c2n1,5.38%
14,Cc1cccc(Cn2c(C)nc3ccc([N+](=O)[O-])cc3c2=O)c1,8.37%
15,CN(C)c1ccc(N2C(=O)CSC2=S)cc1,11.8%
16,O=C1N=C(N2CCOCC2)S/C1=C\c1ccc(-c2ccccc2Cl)o1,2.81%
17,Oc1c(Br)cc(Cl)cc1C=Nc1ccccc1Br,11.8%
18,CCOC(=O)C1CCCN(c2c(NCCc3ccc(C)cc3)c(=O)c2=O)C1 (stereo not shown),9.64%
19,CCOC(=O)C1=C(O)C(=O)N(c2ccc(S(N)(=O)=O)cc2)C1c1cccc([N+](=O)[O-])c1 (stereo not shown),1.5%
20,CCc1c(C)nc2[nH]nc(-c3ccccc3C)n2c1=O,3.87%
21,COc1cccc(-c2ocnc2C(=O)Nc2ccc(N3CCOCC3)cc2N2CCOCC2)c1,15.6%
22,Cc1ccc(C(=O)C(SC(C)(C)C)n2cncn2)cc1 (stereo not shown),9.33%

row,Structure (SMILES),"hERG current change (%, negative = inhibition) at 1uM"
1,COc1ccc(-c2csc(NC(C)c3nc4cc(Cl)c(Cl)cc4n3CCOCCO)n2)cc1 (stereo not shown),13.6%
2,CC(C)n1cc(CN2CCN(CCc3ccccc3)C(CCO)C2)cn1 (stereo not shown),-25.4%
3,O=C1C2C3C=CC(CC3)C2C(=O)N1c1ccc(F)cc1 (stereo not shown),16.2%
4,COc1ccccc1C1C(C(=O)c2sc(C)nc2C)=C(O)C(=O)N1CCN1CCOCC1 (stereo not shown),6.41%
5,CC(C)c1ccccc1NC(=O)COC(=O)C1(C)CC1(Cl)Cl (stereo not shown),16.6%
6,O=C(Nc1ccc(Oc2ccc(C(=O)O)c(C(=O)O)c2)cc1)c1cccs1,32.6%
7,C=CCNC(=O)c1cc2c(C(F)(F)F)nn(C)c2s1,11.6%
8,O=C(Cn1c(-c2cscn2)nc2ccccc21)Nc1ccccc1F,8%
9,Cc1ccc(C)c(NC(=O)CCN2CCc3ccccc3C2)c1,-0.637%
10,CCN(CC(=O)NCc1ccc(F)cc1)C(=O)c1ccc2c(c1)OCO2,5.03%
11,O=C(CSc1nccc(=O)[nH]1)Nc1cccc2ccccc12,21.2%
12,Cc1ccc(C)c(N2CCN(C(=O)c3ccccc3Br)CC2)c1,4.91%
13,Cc1cc(NCCCn2ccnc2)n2nc(-c3ccc(F)cc3)cc2n1,3.04%
14,CCN(CC)CCCNc1nc(CN2CCOCC2)nc2sc3c(c12)CCC3,0.788%
15,Cc1cccc(C)c1N1CCN(S(=O)(=O)N2CCOCC2)CC1,-9.13%
16,COC(=O)c1ccc2nc(C(F)(F)F)[nH]c2c1,1.49%
17,Cc1ccc(S(=O)(=O)N2CCOCC2)cc1C(=O)Nc1ccc(C(N)=O)cc1,9.14%
18,CN(CC(=O)Nc1ccccc1C(F)(F)F)C(=O)c1cc(-c2cccs2)nn1-c1ccccc1,6.95%
19,O=C(CCCc1ccccc1)NC1CC1,-1.62%
20,Cn1ncc2c(N3CCN(c4ccc(Cl)c(Cl)c4)CC3)ncnc21,-7.39%
21,Cc1nc(SCC(=O)OCc2ccccc2)c(C#N)c(-c2ccccc2)c1C(=O)Nc1ccccc1,14.5%
22,CCN(CC)S(=O)(=O)c1ccc2oc(C(=O)NCc3ccc(F)cc3)c(C)c2c1,19.7%

row,Structure (SMILES),"hERG current change (%, negative = inhibition) at 1uM"
1,Cc1cc(C)nc(SCC(=O)NCc2ccco2)n1,4.97%
2,O=C(Nc1ccccc1)c1ccc(S(=O)(=O)N(CCO)CCO)cc1,9.83%
3,CCOC(=O)C1=NN(N=O)C2(CC(=O)N(c3cc(C)cc(C)c3)C2=O)C1 (stereo not shown),2.87%
4,Cc1sc(NC(=O)C2=COCCO2)nc1-c1ccc(F)cc1,19%
5,O=C(c1cc2cc([N+](=O)[O-])ccc2oc1=O)N1CCN(C2CCCCC2)CC1,-60.8%
6,CCCCC1=CC2=C(c3ccco3)C(=O)C(C)(OC(=O)c3ccc(OC)cc3)C(=O)C2=CN1CCCN(CC)CC (stereo not shown),9.84%
7,COc1ccccc1C(=O)NC(=O)CSc1cccc[n+]1[O-],9.54%
8,O=C(/C=C/c1ccccc1[N+](=O)[O-])N1CCOCC1,15.3%
9,Cn1c(=O)c2c(ncn2CC(O)CNc2ccc(F)cc2)n(C)c1=O (stereo not shown),8.44%
10,Cc1ccccc1C(=O)N/N=C1/SCC(=O)N1Cc1ccc2c(c1)OCO2,10.4%
11,C[C@H](CCC(=O)NCC(=O)O)[C@H]1CC[C@H]2[C@@H]3[C@H](O)C[C@@H]4C[C@H](O)CC[C@]4(C)[C@H]3C[C@H](O)[C@]12C,17.6%
12,Nc1nonc1-n1nnc(C(=O)N/N=C/c2cccnc2)c1CSc1ccccc1,7.83%
13,O=C(C1CCCO1)N1CCN(C(=S)Nc2ccc(F)c(Cl)c2)CC1 (stereo not shown),6%
14,O=C(CCS(=O)(=O)c1ccc(Cl)cc1)Nc1ccccc1Br,7.47%
15,COc1ccc(CCN2C(=O)C3C4CC(C5C(C(=O)NN)=NOC45)C3C2=O)cc1OC (stereo not shown),12.7%
16,COc1ccc(C2=NO[C@@H]3C(=O)N(c4ccc(C)cc4C)C(=O)[C@H]23)cc1OC,7.66%
17,CCOC(=O)c1c(N/N=C/c2cccnc2)n[nH]c1C,-1.88%
18,COC(=O)Cn1ncc(N(C)Cc2ccccc2)c(Cl)c1=O,10.3%
19,Cc1cc(NC(=O)Cn2c(=O)n(CCCCC(=O)NC3CCN(Cc4ccccc4)CC3)c(=O)c3ccccc32)n[nH]1,25%
20,O=C(CCS(=O)(=O)c1ccc(F)cc1)Nc1nnc(-c2ccco2)o1,20.1%
21,CC(C)(C)C(=O)Nc1ccc(N2CCN(c3ccc(C(F)(F)F)cn3)CC2)nc1,0.0346%
22,CC(=O)Nc1cccc(-c2csc(NCc3ccccc3)n2)c1.O=C(O)C(=O)O,3.07%

row,Structure (SMILES),"hERG current change (%, negative = inhibition) at 1uM"
1,Cc1cccc(-n2ncc3c(NCc4ccc5c(c4)OCO5)ncnc32)c1,13.1%
2,CCc1ccccc1NC(=S)NC1CC2CCC(C1)N2Cc1ccc(F)cc1 (stereo not shown),-14.2%
3,COC(=O)c1ccccc1NC(=O)CSCC(=O)Nc1ccc(F)cc1,-10.7%
4,c1cc(-c2cn(C[C@H]3CC[C@@H]([C@@H]4CC[C@H](Cn5cc(-c6ccsc6)nn5)O4)O3)nn2)cs1,-44%
5,CN(C)CC/C=C1\c2ccccc2Sc2ccc(Cl)cc21.Cl,3.37%
6,O=C(O)CNS(=O)(=O)c1cccc2nsnc12,-2.71%
7,c1ccc(-n2ncc3c(NC4CCCCCC4)ncnc32)cc1,7.77%
8,COCCCn1c(SCCc2ccccc2)nc2cc(OC)c(OC)cc2c1=N,-2.93%
9,Cc1cccc(NC(=O)COC(=O)c2cc(C)oc2C)c1,-33.9%
10,NC(=O)C[n+]1ccc(/C=N/O)cc1.[Cl-],2.85%
11,Cc1cccc(NC(=O)/C(C#N)=C\c2cn(CC(=O)O)c3ccccc23)c1,12.4%
12,O=C(Nc1ccn(Cc2ccccc2F)n1)c1ccc(COc2cc(Cl)ccc2Cl)o1,11.8%
13,CCC(=O)OCCNc1cc(Sc2nc3ccccc3[nH]2)c2nonc2c1[N+](=O)[O-],11.4%
14,COc1ccc(CCn2cnc(=O)c(C#N)c2C)cc1OC,13.5%
15,Fc1ccc(F)c(NC(=S)NCCc2ccccc2)c1,9.13%
16,O=S(=O)(N1CCOCC1)n1cnc2ccccc21,5.02%
17,C=CCNc1ncnc2c1[nH]c1ccc(C)cc12,12.6%
18,COc1ccc(C=C(C(C)=O)C(C)=O)cc1OC,7.71%
19,CNC(=O)CSc1nnc(COc2ccc([N+](=O)[O-])cc2)n1C,10.2%
20,CCc1[nH]nc2c1C(C(C)C)C(C#N)=C(N)O2 (stereo not shown),15.3%
21,O=C(Nc1nc2c(F)cc(F)cc2s1)c1ccco1,10.5%
22,O=C(c1cc(-c2ccc(Cl)cc2)nc2ccccc12)N1CCOCC1,-4.94%
